According to publication PMC3022755, “HP1 Recruits Activity-Dependent Neuroprotective Protein to H3K9me3 Marked Pericentromeric Heterochromatin for Silencing of Major Satellite Repeats” (PLoS ONE, 2011):

Target: T1, recombinant His6-tagged HP1β W170A (human, UniProt P83916 1-185, W170A)
T1 construct: human HP1β (GenBank BC002609) with tryptophan 170 changed to alanine; also called W170A mutant (mt) His6-HP1β; mutant HP1β W170A protein; source: recombinant; not shown: His6, N-terminal, kept
Experiment: pull-down; H3 peptides on magnetic beads, recombinant His6-HP1 proteins added (in TNT reticulocyte lysate with ADNP-FLAG); anti-His6 western blot
Conditions: both partners purified

T1 sequence (P83916 whole entry W170A): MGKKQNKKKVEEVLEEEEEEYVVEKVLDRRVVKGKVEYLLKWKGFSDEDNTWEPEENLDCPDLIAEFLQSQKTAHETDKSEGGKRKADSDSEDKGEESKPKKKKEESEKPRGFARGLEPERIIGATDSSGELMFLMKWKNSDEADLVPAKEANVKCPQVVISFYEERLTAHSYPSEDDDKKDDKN

B1: H3K9me3 peptide, …(me3)…-biotin (peptide)
peptide: not shown
modifications: trimethyl-lysine at K9; biotinylated lysine residue at the C-terminus
notes: histone H3 N-terminal tail, K9 trimethylated; added C-terminal lysine that carries the biotin; immobilised on magnetic beads through the biotin; also called H3K9me3 matrix; H3 ([…]) trimethylated at lysine 9; source: synthetic peptide
B1: binds.
